PubChem BioAssay AID2676 (National Center for Advancing Translational Sciences (NCATS), 2010)
In all, about 370,000 compounds went through this assay and about 1,100 (0.3%) were called active. Inconclusive means that the source gave no clear call. Such entries were picked first, then a sample of the others. Calls come from the whole dose curve; as a rule, active = well fitted activation curve with a large enough effect; inconclusive = small, poorly fitted or top-dose-only effect; inactive = flat fitted curve, though single readings scatter. Potencies of inconclusive entries are doubtful fits and often do not repeat.

target: Relaxin receptor 1 (Homo sapiens) (UniProt Q9HBX9); assay: qHTS Assay for Agonists of the Relaxin Receptor RXFP1; details: HEK293T-RXFP1 cAMP TR-FRET, 30 min; series mostly up to 57.5 µM; activation: at the top concentration; note: nearly all actives have a fitted effect of over 60% in size
Outline: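 HEK293 cells stably expressing RXFP1, treated 30 min at 37C with compounds plus PDE4 inhibitor Ro 20174; cAMP measured by HTRF TR-FRET. Normalized to buffer and 29 nM porcine relaxin; EC50 by Hill fit.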
% is set by controls: 0 for no effect and ±100 for the full control effect; potency is the fitted concentration of half-maximal effect; tags give direction and shape of the fitted curve.

UniProt Q9HBX9, sequence (Q9HBX9 whole entry, looked up): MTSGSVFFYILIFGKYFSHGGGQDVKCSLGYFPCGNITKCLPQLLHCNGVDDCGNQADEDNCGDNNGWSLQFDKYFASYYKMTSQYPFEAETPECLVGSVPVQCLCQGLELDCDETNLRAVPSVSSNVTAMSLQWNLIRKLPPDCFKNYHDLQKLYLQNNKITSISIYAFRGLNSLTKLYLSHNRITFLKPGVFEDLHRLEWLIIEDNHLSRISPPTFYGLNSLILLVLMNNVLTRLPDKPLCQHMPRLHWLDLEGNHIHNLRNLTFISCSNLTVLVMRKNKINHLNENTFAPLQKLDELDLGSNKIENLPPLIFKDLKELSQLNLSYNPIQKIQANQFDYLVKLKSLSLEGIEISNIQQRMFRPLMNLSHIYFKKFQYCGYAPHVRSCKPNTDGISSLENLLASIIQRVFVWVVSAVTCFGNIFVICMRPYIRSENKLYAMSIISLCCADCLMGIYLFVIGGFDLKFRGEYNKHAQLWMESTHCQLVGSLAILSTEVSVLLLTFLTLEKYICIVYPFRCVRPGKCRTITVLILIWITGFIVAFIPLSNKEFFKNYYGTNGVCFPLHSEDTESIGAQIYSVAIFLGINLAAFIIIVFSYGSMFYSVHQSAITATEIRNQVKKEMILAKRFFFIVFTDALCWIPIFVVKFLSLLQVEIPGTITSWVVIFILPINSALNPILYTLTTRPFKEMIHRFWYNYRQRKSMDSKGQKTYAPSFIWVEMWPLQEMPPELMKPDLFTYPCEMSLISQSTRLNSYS

Potency, inconclusive:
CCn1c(=O)c2sccc2n2c(CCCC(=O)N3CCN(c4ccc(F)cc4)CC3)nnc12 22.4 µM [activator, single point], CCOc1ccc(-c2cc3c(=O)n(CC(=O)NCc4ccc(F)cc4)ccn3n2)cc1 31.6 µM [activator, partial curve], Cc1ccc(S(=O)(=O)c2nnn3c2nc(N2CCOCC2)c2ccccc23)cc1 25.1 µM [activator, partial curve], COc1cccc2cc(-c3nc(-c4ccc(Cl)cc4)cs3)c(=O)oc12 35.5 µM [activator, single point], Clc1ccc(CCNc2nc3cc(Cl)c(Cl)cc3n3cnnc23)cc1 39.8 µM [activator, single point], CC(=O)Nc1cc(C(=O)NCc2ccc(F)cc2)ccc1Sc1ccc(F)cc1 35.5 µM [activator, single point], CCC(=O)c1ccc(OCC(=O)c2ccc3c(c2)NC(=O)CO3)cc1 39.8 µM [activator, single point], Cc1ccc(-c2nn3c(C)nnc3c3ccccc23)cc1S(=O)(=O)NCC(C)O (configuration not stated) 15.8 µM [activator, partial curve], O=C(C1=C(O)C(=O)N(CC2CCCO2)C1c1ccc(Cl)cc1Cl)c1ccco1 (configuration not stated) 28.2 µM [activator, partial curve], O=C(CCCN1C(=O)c2ccccc2C1=O)Nc1c2c(nc3c1CCC3)CCC2 35.5 µM [activator, single point], CC1CCN(C(=O)CSc2nc(-c3ccc(F)cc3)cc(C(F)(F)F)n2)CC1 25.1 µM [activator, single point], Cc1cccc(NC(=O)COC(=O)c2ccc3c(c2)OCO3)c1C 39.8 µM [activator, single point], CCCn1c(N)c(C(=O)COC(=O)c2c(C)noc2C)c(=O)n(C)c1=O 17.8 µM [activator, partial curve], O=C(Cn1c(=O)nc(-c2ccccc2)c2ccccc21)Nc1ccc(Cl)cc1F 28.2 µM [activator, partial curve], CCCCOC(=O)c1ccc(NC(=O)c2sc3nc(C)cc(C)c3c2N)cc1 17.8 µM [activator, partial curve], CCOc1ccc(C(=O)Nc2c(C(=O)Nc3ccccc3OC)oc3ccccc23)cc1OCC 39.8 µM [activator, single point], COc1ccc(Cn2cc(S(=O)(=O)c3ccc(C)cc3)c(=O)c3cc(F)ccc32)cc1 39.8 µM [activator, single point], CCOc1ccc(NC(=O)c2oc3ccccc3c2NC(=O)COc2cccc(OC)c2)cc1 22.4 µM [activator, partial curve], NS(=O)(=O)c1ccc(CCNC(=O)c2ccc(-c3ccccc3)cc2)cc1 25.1 µM [activator, partial curve], CCn1cc(CNC(=O)c2cc(-c3ccc(C)cc3)nc3ccc(Br)cc23)c(C)n1 28.2 µM [activator, partial curve], Cn1c2ccccc2n2c(=O)cc(-c3ccccc3)c(C#N)c12 39.8 µM [activator, single point], COc1ccc(OC)c(CNS(=O)(=O)c2cc(CN3C(=O)c4cccnc4C3=O)ccc2OC)c1 14.1 µM [activator, partial curve], CCCCn1c(=O)nc2n(-c3ccc(OC)cc3)c3ccccc3cc-2c1=O 31.6 µM [activator, single point], CCn1c(=O)cc(OCC(=O)Nc2nc(C)cs2)c2ccccc21 39.8 µM [activator, single point], Nc1c(C(=O)Nc2ccc(F)cc2)sc2nc(-c3cccs3)cc(C(F)(F)F)c12 15.8 µM [activator, partial curve], COc1ccc(C(=O)Nc2cccc(C(=O)OCc3cc(=O)n4nc(C5CC5)sc4n3)c2)cc1 25.1 µM [activator, partial curve], COC(=O)c1cc(CN2C(=O)c3ccccc3C2=O)c(O)c([N+](=O)[O-])c1 28.2 µM [activator, partial curve], CCOC(=O)c1cc2c(=O)n3cccc(C)c3nc2n(CCOC)c1=NC(C)=O 28.2 µM [activator, partial curve], Cn1c(SCC(=O)c2ccc3c(c2)NC(=O)CO3)nc2ccccc21 12.6 µM [activator, partial curve], Cn1c(=O)c2sccc2n2c(CCC(=O)N3CCN(c4ccccc4)CC3)nnc12 15.8 µM [activator, partial curve]

Potency, active:
NS(=O)(=O)c1ccc(CCNC(=O)C2CCN(c3ncnc4c3nc3n4CCCCC3)CC2)cc1 15.8 µM, Cc1nn(CCc2nn[nH]n2)c2nc(-c3ccc(Br)cc3)cc(C(F)(F)F)c12 14.1 µM

activation, inactive:
CCCCN(C(=O)C1CCC(CNS(=O)(=O)c2cccc3nsnc23)CC1)c1ccccc1 (configuration not stated) -2.28%, COc1cccc(Cn2cc(C(=O)c3ccc(Cl)cc3)c(=O)c3ccccc32)c1 -0.434%, CC1=NN(c2ccccc2)C(=O)/C1=C\C=C\c1ccccc1 1.64%, Cc1cc2c(cc1S(=O)(=O)Nc1cc(C(F)(F)F)cc(C(F)(F)F)c1)OCC(=O)N2 -1.62%, Cc1noc(C)c1-c1ccc2ncnc(NCC3CCCCN3C)c2c1 (configuration not stated) 5.4%, CS(=O)(=O)N(CCc1ccccc1)CC(=O)NCc1cccnc1 0.995%, Cc1ccc(CNC(=O)C(C)n2c(=O)cc(C(F)(F)F)c3c(C)nn(C)c32)cc1 (configuration not stated) -1.31%, Cn1nccc1C(=O)N/N=C/c1cccnc1 3.21%, COC(=O)c1ccc(-c2nc(O)c(C)s2)cc1 8.5%, CCOc1ccccc1CNC(=O)c1sc2ncccc2c1-n1cccc1 -0.314%
